Laboratory results published in PubChem BioAssay AID504333 (National Center for Advancing Translational Sciences (NCATS), 2011).
The campaign covered roughly 360,000 compounds. About 16,000 (4.4%) were called active. Inconclusive results, whose numbers are uncertain, are shown with a selection of clear calls. Calls follow the shape of the dose curve; as a rule, active = well fitted inhibition curve with a large enough effect; inconclusive = small, poorly fitted or top-dose-only effect; inactive = no such curve, though single readings can be large or run the other way. Where the call is inconclusive, the potency comes from a doubtful curve fit.

These compounds were tested against Bromodomain adjacent to zinc finger domain protein 2B (Homo sapiens) (UniProt Q9UIF8) (assay: qHTS Assay for Inhibitors of BAZ2B). Settings: AlphaScreen BAZ2B-H3K14Ac peptide displacement; activity change, negative = inhibition: at 114 µM (top of the series) unless noted.
Chain of UniProt Q9UIF8 (Q9UIF8 whole entry, looked up, the tested form may be a part): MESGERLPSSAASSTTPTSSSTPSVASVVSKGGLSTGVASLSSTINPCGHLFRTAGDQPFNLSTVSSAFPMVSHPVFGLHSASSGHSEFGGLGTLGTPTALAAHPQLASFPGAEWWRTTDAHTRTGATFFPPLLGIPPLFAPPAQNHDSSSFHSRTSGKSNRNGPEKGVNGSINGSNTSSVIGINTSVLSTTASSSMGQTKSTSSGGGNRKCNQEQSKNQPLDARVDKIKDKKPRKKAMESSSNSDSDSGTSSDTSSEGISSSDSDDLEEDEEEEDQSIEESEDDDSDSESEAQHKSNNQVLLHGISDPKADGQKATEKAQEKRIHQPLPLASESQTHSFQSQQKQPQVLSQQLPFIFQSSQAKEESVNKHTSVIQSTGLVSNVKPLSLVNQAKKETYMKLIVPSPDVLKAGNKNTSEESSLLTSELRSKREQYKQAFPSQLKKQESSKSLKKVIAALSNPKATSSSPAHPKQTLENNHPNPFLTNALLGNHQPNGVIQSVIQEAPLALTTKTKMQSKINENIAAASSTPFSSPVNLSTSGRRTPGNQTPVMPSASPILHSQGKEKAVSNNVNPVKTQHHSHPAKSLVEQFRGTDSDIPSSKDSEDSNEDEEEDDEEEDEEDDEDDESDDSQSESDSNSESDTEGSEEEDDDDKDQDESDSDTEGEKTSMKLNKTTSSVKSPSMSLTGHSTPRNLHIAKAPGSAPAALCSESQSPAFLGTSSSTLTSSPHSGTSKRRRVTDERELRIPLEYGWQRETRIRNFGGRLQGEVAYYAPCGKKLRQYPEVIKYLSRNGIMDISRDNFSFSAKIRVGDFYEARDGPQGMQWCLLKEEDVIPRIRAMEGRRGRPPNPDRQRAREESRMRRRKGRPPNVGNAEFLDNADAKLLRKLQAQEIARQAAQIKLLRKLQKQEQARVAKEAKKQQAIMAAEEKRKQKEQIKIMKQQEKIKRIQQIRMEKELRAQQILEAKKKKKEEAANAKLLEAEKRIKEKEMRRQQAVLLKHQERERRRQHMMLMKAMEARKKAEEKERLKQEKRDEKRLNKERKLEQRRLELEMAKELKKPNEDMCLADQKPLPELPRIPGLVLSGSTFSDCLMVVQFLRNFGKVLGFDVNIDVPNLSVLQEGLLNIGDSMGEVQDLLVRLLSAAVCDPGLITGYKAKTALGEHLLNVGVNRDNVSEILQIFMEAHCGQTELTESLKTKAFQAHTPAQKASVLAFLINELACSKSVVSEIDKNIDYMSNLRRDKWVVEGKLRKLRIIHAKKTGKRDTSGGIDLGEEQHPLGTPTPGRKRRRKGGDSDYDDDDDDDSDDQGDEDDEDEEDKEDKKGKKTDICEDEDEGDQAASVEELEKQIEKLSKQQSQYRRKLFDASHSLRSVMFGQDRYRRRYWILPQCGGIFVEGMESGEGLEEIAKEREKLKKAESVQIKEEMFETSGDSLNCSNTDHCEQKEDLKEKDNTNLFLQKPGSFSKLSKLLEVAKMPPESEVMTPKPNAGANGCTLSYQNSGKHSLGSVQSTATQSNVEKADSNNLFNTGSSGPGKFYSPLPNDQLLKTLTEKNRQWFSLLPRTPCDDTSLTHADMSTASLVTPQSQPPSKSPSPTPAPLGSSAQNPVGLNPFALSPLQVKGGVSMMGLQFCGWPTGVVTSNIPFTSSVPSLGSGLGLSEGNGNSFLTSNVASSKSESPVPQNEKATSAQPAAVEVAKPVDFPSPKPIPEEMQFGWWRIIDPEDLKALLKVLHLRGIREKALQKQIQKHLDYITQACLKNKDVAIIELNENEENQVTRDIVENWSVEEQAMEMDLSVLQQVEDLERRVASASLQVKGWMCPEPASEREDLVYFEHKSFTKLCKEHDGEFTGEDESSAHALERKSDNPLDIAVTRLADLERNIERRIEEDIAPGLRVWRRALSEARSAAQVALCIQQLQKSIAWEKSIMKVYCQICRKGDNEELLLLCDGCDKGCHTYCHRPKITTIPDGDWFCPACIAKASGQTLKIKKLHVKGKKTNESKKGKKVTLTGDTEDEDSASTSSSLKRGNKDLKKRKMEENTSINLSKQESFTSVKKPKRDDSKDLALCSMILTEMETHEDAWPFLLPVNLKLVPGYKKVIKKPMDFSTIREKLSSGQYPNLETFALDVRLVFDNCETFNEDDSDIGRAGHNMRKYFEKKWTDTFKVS
Procedure, shortened: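 In this displacement format the biotinylated H3(5-23) peptide acetylated at Lys14 serves as ligand at 50 nM, with BAZ2B at 50 nM in PBS pH 7.4 containing 0.01% Tween-20. Donor and acceptor beads are 10 ug/mL final.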
% is scaled to controls: 0 for no effect and ±100 for the full control effect; potency is read from the fitted curve at half-maximal effect; tags tell the direction and shape of the fitted curve.
Also: nearly all actives have a fitted effect of over 60% in size.

Row | Compound | activity change, negative = inhibition | Potency
1 | O=C(COc1cc(Cl)c(Cl)cc1Cl)Nc1cccc(O)c1 | inactive: -6.35% | 
2 | Cc1c(C)n(Cc2ccccc2)c2ccc(C(=O)OCCN(C)C)cc12 |  | active: 22.4 µM
3 | COc1ccc(N2CCN(S(=O)(=O)c3cccc4cccnc34)CC2)cc1 |  | inconclusive: 44.7 µM [inhibitor, partial curve]
4 | CC(=O)N1N=C(c2ccc(NS(=O)(=O)c3ccccc3)cc2)CC1c1ccco1 (centres undefined) |  | inconclusive: 89.1 µM [inhibitor, single point]
5 | COc1ccc(CN2CCN(CCCCOc3ccc(Cl)cc3)CC2)c(OC)c1OC |  | active: 17.8 µM
6 | O=[N+]([O-])c1ccc(S(=O)(=O)Nc2ccc3c(c2)OCCO3)cc1 |  | inconclusive: 79.4 µM [inhibitor, single point]
7 | CC1CN(S(=O)(=O)c2cccc(C(=O)OCC(=O)Nc3ccc4c(c3)OCO4)c2)CC(C)O1 (centres undefined) | inactive: -31.8% | 
8 | Cn1c(Cn2c3ccccc3c3ccccc32)n[nH]c1=S | inactive: -3.51% | 
9 | CC(Nc1ccc2c(c1)OCCO2)C(=O)N1c2ccccc2CC1C (centres undefined) |  | active: 39.8 µM
10 | Cc1ccc(C(C[N+](=O)[O-])c2c(-c3ccccc3O)[nH][nH]c2=O)cc1 (centres undefined) |  | inconclusive: 89.1 µM [inhibitor, single point]
11 | O=C(CN1CCN(C(=O)c2ccco2)CC1)N1CCc2[nH]c3ccccc3c2C1 | inactive: -24% | 
12 | CCSc1nnc(NC(=O)CSc2nccn2-c2cccc(C)c2C)s1 |  | inconclusive: 44.7 µM [inhibitor, partial curve]
13 | COc1ccc(NC(=S)NC(NC(=O)c2cccc(C)c2)C(Cl)(Cl)Cl)c([N+](=O)[O-])c1 (centres undefined) |  | inconclusive: 44.7 µM [inhibitor, partial curve]
14 | COc1ccc(CCNC(=O)C2CCCN(Cc3nc(-c4ccccc4C)oc3C)C2)cc1OC (centres undefined) |  | inconclusive: 79.4 µM [inhibitor, single point]
15 | O=C(NCCN1CCN(c2ccccc2)CC1)c1cccc(Br)c1 |  | inconclusive: 35.5 µM [inhibitor, partial curve]
16 | COc1ccc(CNC(=O)CN2C(=O)COc3ccc(S(=O)(=O)N4CCC(C)CC4)cc32)cc1 |  | inactive
17 | Cc1ccc[n+](/C(C(=S)NCc2ccco2)=C(/[O-])c2ccccc2Cl)c1 | inactive: 1.94% | 
18 | COCCCN1C(=O)c2[nH]nc(-c3ccccc3O)c2C1c1ccc(OCc2ccccc2)cc1 (centres undefined) |  | inconclusive: 22.4 µM [inhibitor, full curve]
19 | C1=C(N2CCOCC2)/C(=C/c2nc3ccccc3[nH]2)CC1 |  | inconclusive: 44.7 µM [inhibitor, partial curve]
20 | Cn1c(=O)n(C)c2cc(NC(=O)COc3ccccc3)ccc21 |  | inconclusive: 79.4 µM [inhibitor, single point]
21 | COc1ccc(N(CC(=O)Nc2cccnc2)S(=O)(=O)c2ccc(C)cc2)cc1Cl |  | inconclusive: 89.1 µM [inhibitor, single point]
22 | Cc1ccc(NC(=S)NNc2ccc([N+](=O)[O-])cc2S(=O)(=O)Nc2ccccc2C(=O)O)cc1C |  | active: 11.2 µM

Row | Compound | activity change, negative = inhibition | Potency
23 | CCNC(=O)c1ccc2c(c1)C1C3CCC(C3)C1C(c1ccccc1)N2 (centres undefined) |  | inconclusive: 50.1 µM [inhibitor, partial curve]
24 | CCCCCCOc1ccc(N2C(=O)CC(N3CCN(CCN=CC4=C(O)CC(C)(C)CC4=O)CC3)C2=O)cc1 (centres undefined) |  | inconclusive: 79.4 µM [inhibitor, single point]
25 | C/C(=N/NC(N)=S)c1cc2ccc(O)cc2oc1=O |  | inconclusive: 22.4 µM [inhibitor, full curve]
26 | CCOc1ccc(CCn2c(-c3ccco3)nc3ccccc3c2=O)cc1OCC |  | inconclusive: 35.5 µM [inhibitor, partial curve]
27 | COc1ccc2[nH]c3c(=O)n(CCCC(=O)NC4CCC(C)CC4)c(=S)[nH]c3c2c1 (centres undefined) | inactive: -8.41% | 
28 | O=C(NC1CCCCC1)C(c1cccs1)N(CCCN1CCOCC1)C(=O)c1ccc(-c2ccccc2)[nH]1 (centres undefined) |  | active: 50.1 µM
29 | O=C(NC(=S)NC1CCCCC1)c1ccc(F)cc1 |  | inconclusive: 50.1 µM [inhibitor, partial curve]
30 | Oc1ccc(-c2nc(-c3ccccc3)c(-c3ccc(Br)cc3)[nH]2)cc1 |  | inconclusive: 39.8 µM [inhibitor, partial curve]
31 | O=C(CCCC1=NS(=O)(=O)c2ccccc2N1)OCc1ccc(Cl)cc1 | inactive: -1.95% | 
32 | C=CCOc1ccc(C2C(C#N)=C(N)N(Nc3ccccc3)C3=C2C(=O)CC(C)(C)C3)cc1OC (centres undefined) |  | inconclusive: 79.4 µM [inhibitor, single point]
33 | CN(C)C(=O)c1ccc(N/C=C(\C=O)c2nc3ccccc3o2)cc1 |  | inconclusive: 89.1 µM [inhibitor, single point]
34 | CN(C)S(=O)(=O)c1ccc2c(c1)N(CC(=O)Nc1ccc(F)cc1)C(=O)CS2 | inactive: 3.16% | 
35 | CCOc1cc(/C=C2/C(=O)NN(c3cccc(Cl)c3)C2=O)ccc1O |  | active: 35.5 µM
36 | Cc1c(C(=O)NCCCn2ccnc2)oc2ccccc12 |  | inconclusive: 8.91 µM [inhibitor, partial curve]
37 | Cc1ccc(C)c(N2CCN(C(=O)CSc3ccsc3[N+](=O)[O-])CC2)c1 |  | inconclusive: 39.8 µM [inhibitor, partial curve]
38 | Cc1ccc([N+](=O)[O-])c(C)[n+]1C |  | inconclusive: 79.4 µM [inhibitor, single point]
39 | CC(C)N(C(=O)CSc1nnc(Cc2csc(Nc3ccccc3)n2)o1)C(C)C |  | inconclusive: 89.1 µM [inhibitor, partial curve]
40 | CCC(C)N(C(=O)CSc1nc(C)c(C)c(C)c1C#N)C1CCS(=O)(=O)C1 (centres undefined) | inactive: 27.8% | 
41 | CCN1CCN(C(c2ccccc2OC)c2nnnn2C2CCCCC2)CC1 (centres undefined) |  | inconclusive: 89.1 µM [inhibitor, single point]
42 | NS(=O)(=O)c1ccc(NCC2COc3ccccc3O2)c([N+](=O)[O-])c1 (centres undefined) | inactive: -35.1% | 
43 | Fc1ccc(Nc2nc(SCc3ccccc3F)nc3ccccc23)cc1 | inactive: 29.8% | 
44 | Cc1nc2ccc(NC(=O)Cc3ccsc3)cc2s1 |  | inconclusive: 10 µM [inhibitor, single point]
